# The list shows a part of the results. Cleavage of a single-stranded DNA pool by Rep nickase domains was read by sequencing (3 µM enzyme, 1 h, 37 °C); shown is the middle of each 90-letter strand. Numbers give uncut DNA relative to the enzyme-free pool, as log2; uncut sequences lie near 0, cut ones below; no hit call is given. Because reads are shares of a total, they shift together; values above 0 arise when much of the pool is cut.
# What was measured:
# Experiment in all cases: uncleaved DNA left, log2 of reads against the no-enzyme library (log2 ratio); higher = less cleavage (more negative = more Rep cleavage of the k-mer); sequences stand for … in CTCGTCCG…ACCGGAGA
# [1] = tested on: T1, Rep nickase domain of Muscovy duck circovirus
# T1 sequence (protein, residues 1-111, tag omitted): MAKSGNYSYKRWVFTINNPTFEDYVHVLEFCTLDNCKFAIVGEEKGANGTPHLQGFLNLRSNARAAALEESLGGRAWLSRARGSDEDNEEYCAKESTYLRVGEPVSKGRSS
# Protocol: (§1)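 A pool of 90-nt single-stranded DNAs with seven random bases just before the constant AC of the nick site (name = the seven bases) was cut by 3 µM recombinant His6-SUMO-tagged Rep nickase domain (300 nM DNA, 50 mM HEPES pH 8.0, 50 mM NaCl, 1 mM MnCl2, 1 h, 37 °C, three replicates). Uncut DNA was amplified and sequenced.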
# [2] = tested on: T2, Rep nickase domain of banana bunchy top virus
# T2 sequence (protein, residues 1-94, tag omitted): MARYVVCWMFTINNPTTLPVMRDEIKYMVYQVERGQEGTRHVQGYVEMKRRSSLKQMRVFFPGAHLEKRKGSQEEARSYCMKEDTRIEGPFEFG
# Protocol: as §1
# [3] = tested on: T3, Rep nickase domain of cabbage leaf curl virus
# T3 sequence (protein, residues 1-116, tag omitted): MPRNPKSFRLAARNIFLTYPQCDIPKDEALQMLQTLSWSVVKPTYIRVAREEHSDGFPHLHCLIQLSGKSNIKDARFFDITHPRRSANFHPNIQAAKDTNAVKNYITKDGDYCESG
# Protocol: as §1
# [4] = tested on: T4, Rep nickase domain of chickpea chlorotic dwarf virus
# T4 sequence (protein, residues 1-124, tag omitted): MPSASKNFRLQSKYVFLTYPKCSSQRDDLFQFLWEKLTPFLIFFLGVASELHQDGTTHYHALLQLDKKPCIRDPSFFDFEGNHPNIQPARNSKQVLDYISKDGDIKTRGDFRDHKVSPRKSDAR
# Protocol: as §1
# [5] = tested on: T5, Rep nickase domain of faba bean necrotic yellows virus
# T5 sequence (protein, residues 1-98, tag omitted): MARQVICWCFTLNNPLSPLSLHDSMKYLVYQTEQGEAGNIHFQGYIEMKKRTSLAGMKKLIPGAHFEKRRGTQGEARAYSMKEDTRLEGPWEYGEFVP
# Protocol: as §1
# [6] = tested on: T6, Rep nickase domain of maize striate mosaic virus
# T6 sequence (protein, residues 1-117, tag omitted): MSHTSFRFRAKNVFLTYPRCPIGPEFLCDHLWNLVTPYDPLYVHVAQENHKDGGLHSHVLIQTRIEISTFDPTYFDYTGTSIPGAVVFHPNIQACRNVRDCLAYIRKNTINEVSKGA
# Protocol: as §1
# [7] = tested on: T7, Rep nickase domain of porcine circovirus 2
# T7 sequence (protein, residues 2-116, tag omitted): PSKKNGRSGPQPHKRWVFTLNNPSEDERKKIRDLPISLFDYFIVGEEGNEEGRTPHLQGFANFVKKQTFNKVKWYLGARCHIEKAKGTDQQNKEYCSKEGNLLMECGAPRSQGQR
# Protocol: as §1
# [8] = tested on: T8, Rep nickase domain of tomato golden mosaic virus
# T8 sequence (protein, residues 1-124, tag omitted): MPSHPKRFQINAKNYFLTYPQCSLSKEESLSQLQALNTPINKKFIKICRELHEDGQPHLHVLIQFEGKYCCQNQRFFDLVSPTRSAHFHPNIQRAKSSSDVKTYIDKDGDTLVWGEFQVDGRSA
# Protocol: as §1
# [9] = tested on: T9, Rep nickase domain of tomato yellow leaf curl virus
# T9 sequence (protein, residues 1-136, tag omitted): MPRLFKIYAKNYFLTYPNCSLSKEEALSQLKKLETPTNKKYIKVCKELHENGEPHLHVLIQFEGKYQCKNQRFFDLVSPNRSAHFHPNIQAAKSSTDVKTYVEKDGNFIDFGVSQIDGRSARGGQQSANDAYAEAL
# Protocol: as §1
# [10] = tested on: T10, Rep nickase domain of wheat dwarf virus
# T10 sequence (protein, residues 1-137, tag omitted): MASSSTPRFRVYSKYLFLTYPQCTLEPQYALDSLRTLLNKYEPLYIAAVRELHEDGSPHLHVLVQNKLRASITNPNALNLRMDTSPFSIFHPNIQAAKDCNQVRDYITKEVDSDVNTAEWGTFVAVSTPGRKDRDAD
# Protocol: as §1
Sequence,uncleaved DNA left (log2) [1],uncleaved DNA left (log2) [2],uncleaved DNA left (log2) [3],uncleaved DNA left (log2) [4],uncleaved DNA left (log2) [5],uncleaved DNA left (log2) [6],uncleaved DNA left (log2) [7],uncleaved DNA left (log2) [8],uncleaved DNA left (log2) [9],uncleaved DNA left (log2) [10]
AATAGAT,0.042,-0.0622,0.117,1.2,-0.213,1.55,-0.0386,0.026,-0.145,0.0572
TAGTTGC,0.119,-0.0449,-0.78,-0.362,0.0593,-1.17,-0.126,-0.162,0.0297,-0.0997
AGTCATG,0.0317,0.0197,-0.0752,0.261,0.0586,0.0925,0.0936,0.18,0.108,0.0897
TAACATA,0.0134,0.0928,-1.48,-2.25,0.0796,-0.383,-0.0193,-0.117,0.103,-0.346
TGAGACG,-0.0398,0.0639,-0.427,-0.417,0.104,-0.614,0.0667,0.0523,-0.019,-0.0239
TCACAGC,0.0359,0.0341,-0.282,-0.653,0.00985,-1.05,0.19,-0.0989,0.0216,-0.0167
AGGTGAG,0.116,-0.0464,-0.429,-0.248,-0.0776,-0.705,0.0671,-0.0522,0.0588,-0.054
TGTGGCC,0.0215,-0.0572,0.209,0.615,-0.0692,0.553,0.0556,-0.0675,-0.0118,-0.0601
CTATTAC,-2.95,-0.169,-0.671,-2.79,0.123,-1,-3.29,-0.0476,0.114,-0.0956
CTATTCA,-0.186,-0.0391,-0.299,-1.28,-0.0491,-0.954,-0.187,-0.0757,0.0409,0.101
CCTGCGT,-0.0423,-0.112,-0.927,-0.753,-0.0923,-1.04,0.0539,-0.288,-0.141,-0.337
CCCTGAG,-0.136,-0.0258,-0.676,-0.182,0.066,-0.99,0.109,0.0304,0.0772,-0.034
CCCGCAG,-0.0635,-0.165,-0.814,-0.423,0.14,-0.85,0.0532,-0.0728,-0.076,-0.083
GTCACTC,-0.00893,0.104,0.296,0.879,0.00669,1.46,0.136,-0.0287,0.107,0.144
ACTCTAT,-0.00332,-0.0732,-0.287,-0.843,-0.0177,-0.596,-0.0951,-0.0491,-0.05,-0.0622
TTTCGCG,0.0532,-0.102,-0.705,0.442,0.021,-0.796,0.00692,-0.11,-0.179,-0.146
TATAGCC,0.121,0.000198,-0.0906,-0.529,0.106,-0.989,0.0544,-0.0564,0.0273,0.0319
TAGGGTG,-0.0202,-0.0207,-0.374,-0.476,0.0568,-0.528,0.0424,0.0378,0.0419,-0.114
ATGTATT,-3.74,-3.27,-0.596,-2.86,-3.34,-0.352,-3.34,-0.148,0.174,-0.469
GGCTAGG,0.114,0.153,0.373,1.07,0.0575,1.43,0.239,0.135,0.121,0.0797
GGACCGC,0.0995,0.124,0.684,1.45,-0.0417,1.79,0.26,-0.0682,0.147,0.107
ATGCAGA,0.145,0.145,-0.412,-0.401,0.197,-1.07,0.183,0.0888,0.00749,0.0497
TCCTGTA,-0.166,-0.0407,-0.0873,-0.835,-0.0607,-0.454,-0.781,-0.177,0.0234,-0.064
TCGGCAG,0.0182,0.00336,-0.221,-0.151,0.0922,-0.489,0.2,0.0867,-0.0159,0.147
TGAATGG,0.141,0.192,0.28,0.717,0.13,0.287,0.258,0.123,0.098,0.156
GCGCAAT,2.07e-05,-0.0506,0.0264,0.446,-0.244,0.496,-0.136,-0.219,-0.108,-0.0511
AACCTTA,0.00671,-0.0889,-0.202,-2.06,-0.0737,-0.481,-0.412,-0.0469,-0.0513,-0.151
AACGACC,-0.00266,0.111,-0.0389,0.395,-0.0187,-0.0278,0.141,0.0604,-0.0535,0.0918
AATGTAG,0.0766,-0.016,-0.766,-0.0905,0.104,-1.03,0.183,0.0161,0.0496,-0.0449
GTGTACG,0.0793,0.093,-0.382,-0.174,0.107,-0.443,0.116,0.0376,0.113,0.000264
